Laboratory results reported in CN110922489A (BEIJING KANGPUMEITE INNOVATION MEDICINE TECH CO LTD, dated 2020).

B1: 抗C3d单链抗体-CD59(ScFv-CD59)融合蛋白 (other)
chain: MASYELTQPPSVSVAPGQTARITCSGDALGDKYASWYQQKPGQAPVLVIYEDSKRPSGIPERFSGSNSGNTATLTISGTQAEDEADYYCQSQAGAVVGVFGGGTKLTVLGSGGSTITSYNVYYTKLSSSGS[no letters for about 100 residues]GSVNHGVDFWGQGTLVTVSSAGGGSGGGGSLQCYNCPNPTADCKTAVNCSSDFDACLITKAGLQVYNKCWKFEHCNFNDVTTRLRENELTYYCCKKDLCNFNEQLEN
notes: Secreted from CHO-K1 cells, about 36 kDa; also called C3d-ScFV-CD59
B2: 抗C3d单链抗体 V L -Linker-V H (ScFv) (scFv)
scFv: MASYELTQPPSVSVAPGQTARITCSGDALGDKYASWYQQKPGQAPVLVIYEDSKRPSGIPERFSGSNSGNTATLTISGTQAEDEADYYCQSQAGAVVGVFGGGTKLTVLGSGGSTITSYNVYYTKLSSSGS[no letters for about 100 residues]GSVNHGVDFWGQGTLVTVSSA
notes: Expressed in CHO cells from pEE14.1, about 26 kD

Key:
人C3dg-生物素 [1] = target: T1, 人C3dg-生物素 (human, UniProt P01024 partial chain, biotin label (生物素标记), site not stated); test: SPR (BIAcore 3000), C3dg-biotin captured on streptavidin chip, analyte 15.6-500 nmol/L, 1:1 model
T1 construct: domain: C3dg; Captured on a BIAcore streptavidin sensor chip; also called 生物素标记的C3dg

人C3dg-生物素 [2] = target: T1, 人C3dg-生物素; test: SPR (BIAcore 3000), C3dg-biotin captured on streptavidin chip, 1:1 model
T1 sequence (P01024 955-1303 limits assumed): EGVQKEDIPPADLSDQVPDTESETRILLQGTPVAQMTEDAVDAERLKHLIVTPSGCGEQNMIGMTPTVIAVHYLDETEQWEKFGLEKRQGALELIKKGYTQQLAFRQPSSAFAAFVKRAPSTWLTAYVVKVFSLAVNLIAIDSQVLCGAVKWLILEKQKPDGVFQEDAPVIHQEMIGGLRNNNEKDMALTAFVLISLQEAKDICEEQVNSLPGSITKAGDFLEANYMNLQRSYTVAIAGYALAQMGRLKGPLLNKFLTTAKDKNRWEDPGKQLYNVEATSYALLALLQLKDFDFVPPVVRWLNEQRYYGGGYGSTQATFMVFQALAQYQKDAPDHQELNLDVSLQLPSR

| Binder | binding result (人C3dg-生物素 [1]) | binding result (人C3dg-生物素 [2]) |
| --- | --- | --- |
| B1 | binds | – |
| B2 | – | binds |
